In PubChem BioAssay AID602310 (National Center for Advancing Translational Sciences (NCATS), 2012):
In all, about 410,000 compounds went through this assay and about 310 (0.076%) were called active. The inconclusive results got no clear call from the source; some entries with a clear call stand among them for comparison. Calls follow the shape of the dose curve; as a rule, active = well fitted curve in the direction sought with a large enough effect; inconclusive = small, poorly fitted or top-dose-only effect; inactive = flat fitted curve, though single readings scatter. Potencies of inconclusive entries are doubtful fits and often do not repeat.

biological target: DNA dC->dU-editing enzyme APOBEC-3G (Homo sapiens) (UniProt Q9HC16); experiment: qHTS for Inhibitors of Vif-A3G Interactions: qHTS; conditions: HeLa A3G-eYFP + Vif (tagged APOBEC3G with the HIV-1 protein that degrades it), YFP fluorescence, overnight; series mostly up to 46.1 µM; activity, negative = active: at the top concentration; also: nearly all actives have a fitted effect of over 60% in size;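 as to activity, negative = active: hits raise eYFP signal because A3G escapes Vif-driven loss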
UniProt Q9HC16, sequence (Q9HC16 whole entry, looked up): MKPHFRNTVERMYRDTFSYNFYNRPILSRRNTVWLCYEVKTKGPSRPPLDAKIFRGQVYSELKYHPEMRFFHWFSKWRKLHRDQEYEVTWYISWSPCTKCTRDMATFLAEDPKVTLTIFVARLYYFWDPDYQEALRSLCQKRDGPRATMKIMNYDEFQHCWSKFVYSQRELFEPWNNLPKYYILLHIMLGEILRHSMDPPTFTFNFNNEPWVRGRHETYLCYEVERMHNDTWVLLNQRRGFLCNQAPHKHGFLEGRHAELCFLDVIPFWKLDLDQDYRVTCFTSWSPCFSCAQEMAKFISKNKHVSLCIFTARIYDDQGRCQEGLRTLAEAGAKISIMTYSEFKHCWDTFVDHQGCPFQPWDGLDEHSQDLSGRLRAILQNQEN
Outline: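 HeLa cells stably expressing Vif and C-terminally eYFP-tagged A3G, seeded overnight at 37 deg C, then exposed to compound by pintool overnight at 37 deg C. Rise in yellow fluorescence (Ex 488/Em 500-530, Acumen) marks blocked Vif-driven A3G degradation.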
% is scaled to controls: 0 for no effect and ±100 for the full control effect; potency is read from the fitted curve at half-maximal effect; tags tell the direction and shape of the fitted curve.

Row | Structure (SMILES) | activity, negative = active | Potency
1 | COc1ccc(-n2c(SC3CCOC3=O)nc3ccccc3c2=O)cc1Cl (centres undefined) | inactive: 9.56% | –
2 | CCOC(=O)c1ccc(NC(=O)Cn2nc(SC)c(S(=O)(=O)c3ccc(Cl)cc3)c2N)cc1 | inactive: -4.25% | –
3 | COc1ccc(-c2csc3nc(C)nc(N4CCCCC4)c23)cc1OC | – | inconclusive: 22.4 µM [inhibitor, single point]
4 | Cc1ccc(-n2nc3c(SCCN4CCOCC4)nnc(C)c3c2C)cc1 | – | inconclusive: 35.5 µM [inhibitor, partial curve, poor fit]
5 | COc1cccc(CNC(=O)C2CCN(C(=O)N3CCOc4ccc(Cl)cc43)CC2)c1OC | inactive: 0.0149% | –
6 | COc1ccc(C)cc1Nc1n[n+](-c2ccccc2)c(-c2ccc(N(C)C)cc2)s1 | – | inconclusive: 35.5 µM [inhibitor, single point]
7 | Cc1ccccc1-c1nn(-c2ccc(F)cc2F)cc1CNCCCN(C)C | inactive: 1.59% | –
8 | Cc1cccc2c(-c3ccccc3)cc(=O)[nH]c12 | inactive: 0.124% | –
9 | COc1cc(OC)c(-c2cc(C(=O)NCc3ccc(F)cc3)c3c(-c4ccccc4)[nH]nc3n2)cc1OC | – | inconclusive: 22.4 µM [inhibitor, single point]
10 | Cc1ccc(-c2nc3ccccc3o2)cc1NC(=O)C(C)Oc1ccccc1 (centres undefined) | inactive: 0.457% | –
11 | O=S(=O)(Nc1cccnc1)c1cccc2ccccc12 | inactive: -4.9% | –
12 | O=C(/C=C/c1ccccc1)Nc1scc(-c2ccccc2)c1C(=O)O | inactive: -0.957% | –
13 | NC(N)=N/N=C/c1ccc(OCc2ccccc2)c(OCc2ccccc2)c1 | inactive: -8.34% | –
14 | Cc1cnc2c3c(cc(Cl)c2c1)-c1ccccc1S(=O)(=O)N3 | – | inconclusive: 3.55 µM [inhibitor, full curve, poor fit]
15 | O=C(NCC(=O)N1CCN(C(=O)c2ccco2)CC1)c1ccc(Br)cc1 | inactive: -2.08% | –
16 | COc1cc(C(=S)N2CCCC2)ccc1O | inactive: 0.988% | –
17 | O=[N+]([O-])c1c(NCCCO)cc(SCc2ccco2)c2nonc12 | – | inconclusive: 20 µM [inhibitor, single point]
18 | Cc1c(C(=O)C(=O)N2c3ccc(F)cc3CCC2C)c2ccccc2n1C (centres undefined) | – | inconclusive: 1.41 µM [inhibitor, full curve, poor fit]
19 | CN(C)c1ccc(C2C=C(c3ccc(Cl)cc3OC(F)F)Nc3ncnn32)cc1 (centres undefined) | – | active: 8.91 µM
20 | Cc1cccc(C)c1NC(=O)CSc1nc(-c2ccco2)cc(C(F)(F)F)n1 | – | inconclusive: 7.08 µM [inhibitor, partial curve, poor fit]
21 | COc1ccc(Nc2oc(-c3ccccc3Cl)nc2C#N)cc1 | – | inconclusive: 1.26 µM [inhibitor, full curve, poor fit]
22 | CCOC(=O)c1ccc(-n2c(C)ccc2C)cc1 | inactive: 0.414% | –
23 | CCC(C)Sc1ccc(-c2nc3ccc(C)cn3c2NCc2ccccc2)cc1OC (centres undefined) | inactive: -0.979% | –
24 | CO/N=C\C(=N\Nc1ccc(OC)cc1)C(=O)c1ccccc1 | – | inconclusive: 12.6 µM [inhibitor, single point]
25 | CS(=O)(=O)Nc1ccc(C2=NN(S(C)(=O)=O)C(c3ccc4nccnc4c3)C2)cc1 (centres undefined) | – | inconclusive: 20 µM [inhibitor, single point]

Row | Structure (SMILES) | activity, negative = active | Potency
26 | COc1ccc(NCc2cc3cc4c(cc3n(CC(=O)Nc3cc(C)ccc3C)c2=O)OCCO4)cc1 | – | inconclusive: 6.31 µM [inhibitor, single point]
27 | CSc1nc(Sc2ccccc2Cl)c2ccccc2n1 | – | inconclusive: 10 µM [inhibitor, partial curve]
28 | Cc1csc(Sc2ccc([N+](=O)[O-])cc2C(=O)OCC(=O)NC2CCCC(C)C2C)n1 (centres undefined) | inactive: 1.51% | –
29 | Cc1ccc(-c2csc(N=C(N)N)n2)c(C)c1 | – | inconclusive: 11.2 µM [inhibitor, partial curve, poor fit]
30 | COCc1ccc(C(=O)N2CCc3c([nH]c4ccccc34)C2c2ccccn2)s1 (centres undefined) | – | inconclusive: 35.5 µM [inhibitor, single point]
31 | COc1cc(CC(=O)OCC(=O)c2ccc3c(c2)OCCO3)cc(OC)c1OC | – | inconclusive: 0.562 µM [inhibitor, full curve, poor fit]
32 | OC(CNCC1CCCO1)Cn1c2ccc(Br)cc2c2cc(Br)ccc21 (centres undefined) | – | inconclusive: 17.8 µM [inhibitor, single point]
33 | CCOc1ccccc1NC(=O)Cn1nnc(C(=O)NCc2cccs2)c1N | – | inconclusive: 0.447 µM [inhibitor, partial curve, poor fit]
34 | COC(=O)c1ccc(NC(=O)CSC2=NCCN2)cc1 | – | inconclusive: 15.8 µM [inhibitor, single point]
35 | C/C(=N\NC(=S)NCc1ccccc1)c1ccc2ccccc2c1 | inactive: -2.43% | –
36 | O=C(/C=C/c1ccc([N+](=O)[O-])cc1)c1ccccc(=O)c1O | – | inconclusive: 4.47 µM [inhibitor, full curve]
37 | O=C(CCl)N1N=C(c2ccco2)CC1c1cccs1 (centres undefined) | – | inconclusive: 31.6 µM [inhibitor, single point]
38 | CN(C)CCNC(=O)/C(=C/c1ccc(-c2ccc(Cl)cc2)o1)NC(=O)c1ccccc1 | – | inconclusive: 31.6 µM [inhibitor, single point]
39 | OC(COCc1ccc2c(c1)OCO2)CN1CCC(Cc2ccccc2)CC1 (centres undefined) | inactive: -1.85% | –
40 | CCCCCCN1C=CC=C/C1=C/C=C(C#N)C#N | – | inconclusive: 20 µM [inhibitor, single point]
41 | Cc1ccc2c(c1)C(=O)C(=O)N2Cc1ccccc1 | inactive: 1.24% | –
42 | Nc1ccc(O)cc1 | – | inconclusive: 35.5 µM [inhibitor, single point]
43 | Cc1[nH]c2ccccc2c1/C=C/c1nc2ccccc2c(=O)[nH]1 | – | inconclusive: 35.5 µM [inhibitor, single point]
44 | O=C(CCCN=C1NS(=O)(=O)c2ccccc21)OCC(=O)c1ccc(F)cc1 | inactive: 1.7% | –
45 | Cc1ccc(N2C(=O)CS/C2=C(\C(Cl)=C(Cl)Cl)[N+](=O)[O-])cc1 | – | inconclusive: 31.6 µM [inhibitor, single point]
46 | Cc1ccccc1OCCCC(=O)NCc1ccco1 | inactive: -0.783% | –
47 | COc1ccc2c(c1)c(C(O)CN1CCC(Cc3ccccc3)CC1)c(C)n2C (centres undefined) | inactive: -0.208% | –
48 | O=C(CCl)Nc1cc(-c2ccccc2)nn1-c1ccccc1 | – | inconclusive: 35.5 µM [inhibitor, single point]
49 | N#CC1=C(N)Oc2cc(O)ccc2C1C1CCCCC1 (centres undefined) | – | inconclusive: 28.2 µM [inhibitor, single point]
50 | CCN1CCN(c2nc(C)nc3c2sc(=S)n3C)CC1 | inactive: -2.78% | –

Row | Structure (SMILES) | activity, negative = active | Potency
51 | Cc1ccc(-c2cc(C(=O)NCc3ccco3)c3ccccc3n2)s1 | inactive: -7.11% | –
52 | COc1cccc(C(NC(C)=O)c2nc(-c3cccc(O)c3)cs2)c1 (centres undefined) | – | inconclusive: 2.82 µM [inhibitor, full curve]
53 | CCOC(=O)c1cc(CC)sc1NC(=O)c1cc([N+](=O)[O-])ccc1N1CCOCC1 | – | inconclusive: 6.31 µM [inhibitor, full curve]
54 | COc1ccc(CNc2ncnc3nc[nH]c23)cc1 | inactive: -1.08% | –
55 | COc1ccc(-c2nc(Cn3c(SCc4ccc(C)cc4)nc4ccncc43)c(C)o2)cc1OC | – | inconclusive: 35.5 µM [inhibitor, single point]
56 | COc1ccc(OC)c(NC(=O)c2c(NCc3cccs3)sc3c2CCCCC3)c1 | inactive: -3.22% | –
57 | CCN1CCN(c2c(/C=C3\SC(=S)N(Cc4ccco4)C3=O)c(C)c(C#N)c(=O)n2C)CC1 | – | inconclusive: 17.8 µM [inhibitor, partial curve, poor fit]
58 | CCN(CC)CCNC(=O)c1ccc(NC(=O)C2CCN(S(=O)(=O)c3ccc4c(c3)OCCO4)CC2)cc1 | inactive: 0.354% | –
59 | O=C1C(N2CCOCC2)=C(n2nnc3ccccc32)C(=O)c2ccccc21 | – | inconclusive: 35.5 µM [inhibitor, single point]
60 | COc1ccccc1N1C(=O)C2C3C=CC(CC3)C2C1=O (centres undefined) | inactive: -2.84% | –
61 | O=C(C[N+]12CN3CN(CN(C3)C1)C2)c1ccc(Br)cc1 | inactive: -3.82% | –
62 | CC(=O)Nc1ccc(-c2ccnc3c2CC(C(=O)Nc2cccnc2)O3)cc1 (centres undefined) | – | inconclusive: 22.4 µM [inhibitor, single point]
63 | CSc1ccc(C2c3[nH]c4ccccc4c3CCN2C(=O)c2ccnn2C)cc1 (centres undefined) | – | inconclusive: 22.4 µM [inhibitor, single point]
64 | Cc1ccccc1Nc1ncnc2c1cnn2-c1ccccc1 | inactive: -2.26% | –
65 | CS(=O)c1nc(-c2ccc(Br)cc2)cc(-c2ccccc2)c1C#N (centres undefined) | – | inconclusive: 31.6 µM [inhibitor, single point]
66 | C=CCN(c1ccc(C(=O)Nc2ccc(NC(C)=O)cc2)cc1)S(C)(=O)=O | inactive: -1.49% | –
67 | Cc1[nH]c2ccc(C(=O)N3CCN(c4ccccc4F)CC3)cc2c1C | inactive: -20.3% | –
68 | COc1ccc(C(=O)c2ccc(OC)c(OC)c2OC)cc1 | – | inconclusive: 3.55 µM [inhibitor, partial curve, poor fit]
69 | CCOc1ccc(/C=C/c2nc(C#N)c(N3CCN(CC)CC3)o2)cc1 | inactive: -2.27% | –
70 | CCOc1ccc(C(=O)COC(=O)c2cc([N+](=O)[O-])ccc2N2CCOCC2)cc1 | – | inconclusive: 15.8 µM [inhibitor, single point]
71 | CCOc1cc(C(c2c(C)[nH]n(-c3ccccc3)c2=O)c2c(C)[nH]n(-c3ccccc3)c2=O)ccc1O | – | inconclusive: 22.4 µM [inhibitor, single point]
72 | Cc1ccc(-c2csc(NC(=O)C3CC(=O)N(Cc4ccco4)C3)n2)cc1 (centres undefined) | inactive: 2.35% | –
73 | O=C(N/N=C/c1cc2c(cc1Cl)OCO2)c1ccc2c(c1)OCCO2 | – | inconclusive: 22.4 µM [inhibitor, single point]
74 | COc1cc(OC)c2c(-c3ccccc3)cc(=O)oc2c1 | – | inconclusive: 17.8 µM [inhibitor, single point]
